Paper PMC4336329 (PLoS ONE, 2015)
The campaign covered roughly 310,000 compounds. About 2,200 (0.71%) showed an effect of 50% or more. Effects have a minus sign here. The list shows a part of the results.

Each compound was assayed against human ether-à-go-go-related gene (hERG) potassium channel (human, UniProt Q12809) (assay: primary screen, population patch clamp on CHO cells stably expressing hERG).
Chain of human ether-à-go-go-related gene (hERG) potassium channel (Q12809 whole entry, looked up): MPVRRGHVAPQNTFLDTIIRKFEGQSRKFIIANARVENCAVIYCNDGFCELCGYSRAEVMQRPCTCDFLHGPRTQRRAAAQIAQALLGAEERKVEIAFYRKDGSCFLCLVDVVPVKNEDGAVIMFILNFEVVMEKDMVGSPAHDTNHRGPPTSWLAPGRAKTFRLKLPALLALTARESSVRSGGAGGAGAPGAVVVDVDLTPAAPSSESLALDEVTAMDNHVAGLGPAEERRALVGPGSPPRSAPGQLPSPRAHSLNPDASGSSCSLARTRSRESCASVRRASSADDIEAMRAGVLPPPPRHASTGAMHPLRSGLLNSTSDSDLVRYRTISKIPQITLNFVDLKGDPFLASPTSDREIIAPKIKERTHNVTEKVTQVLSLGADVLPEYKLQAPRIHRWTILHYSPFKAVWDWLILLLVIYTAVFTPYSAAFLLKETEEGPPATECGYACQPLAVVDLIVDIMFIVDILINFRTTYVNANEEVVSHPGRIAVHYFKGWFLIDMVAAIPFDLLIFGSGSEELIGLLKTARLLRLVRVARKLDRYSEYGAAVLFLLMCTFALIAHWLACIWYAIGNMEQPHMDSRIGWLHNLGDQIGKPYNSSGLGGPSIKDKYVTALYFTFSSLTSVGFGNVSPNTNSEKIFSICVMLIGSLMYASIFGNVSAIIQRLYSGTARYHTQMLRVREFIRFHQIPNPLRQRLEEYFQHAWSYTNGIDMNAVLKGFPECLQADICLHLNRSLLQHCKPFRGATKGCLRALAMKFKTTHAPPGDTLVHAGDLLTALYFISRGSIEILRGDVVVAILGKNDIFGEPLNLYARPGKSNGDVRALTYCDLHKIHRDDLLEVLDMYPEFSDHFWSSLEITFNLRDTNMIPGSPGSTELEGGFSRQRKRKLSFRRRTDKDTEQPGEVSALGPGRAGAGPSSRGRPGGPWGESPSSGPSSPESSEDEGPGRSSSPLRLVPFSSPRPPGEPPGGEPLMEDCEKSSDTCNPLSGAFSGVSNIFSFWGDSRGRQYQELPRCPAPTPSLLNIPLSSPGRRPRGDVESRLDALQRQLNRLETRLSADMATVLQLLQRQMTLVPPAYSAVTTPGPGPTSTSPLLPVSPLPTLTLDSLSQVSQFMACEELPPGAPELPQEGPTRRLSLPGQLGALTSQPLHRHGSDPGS

In order of rising “hERG current change (%, negative = inhibition) at 1uM” value:
1. CCN1CCN(c2ccc(NC(=O)COc3ccccc3Cl)cc2)CC1  -6.66%
2. COc1cccc(/C=C2/Sc3ccc(C(=O)NCCN4CCCC4)cc3NC2=O)c1  -6.49%
3. CCOC(=O)c1sc(C)c2c1NC(c1ccc(Cl)cc1)NC2=O (stereo not shown)  -4.42%
4. CSc1nnc2c(n1)c(C)nn2-c1ccc(C)cc1  -0.748%
5. Cc1ncsc1CCSc1nc2ccccc2c(=O)n1C  -0.588%
6. CCN(CC(=O)NCc1ccc(F)cc1)C(=O)c1oc2ccccc2c1C  -0.0994%
7. CCS(=O)(=O)N1Cc2ccccc2CC1C(=O)NCC12CC3CC(CC(C3)C1)C2 (stereo not shown)  0.461%
8. Cc1ccccc1C(=O)N1CCC(C(=O)Nc2sccc2C(N)=O)CC1  0.801%
9. Cc1cc(/C=N/NC(=O)CC#N)c(C)n1-c1ccc([N+](=O)[O-])cc1  0.927%
10. COc1ccc(-c2noc(CN3CCCCC3c3nccn3C)n2)cc1 (stereo not shown)  1.84%
11. Cc1cccc2c(CC(=O)Nc3ccccc3)noc12  3.24%
12. CC(=O)Nc1cccc(NC(=O)CSc2nc(=O)n(CCN3CCOCC3)c3c2CCC3)c1  5.13%
13. CC(CC(=O)Nc1ccncc1)c1ccccc1 (stereo not shown)  5.15%
14. Cc1cccc(NC(=O)Nc2ccccc2)n1  5.39%
15. CCN(CC)S(=O)(=O)c1ccc2[nH]c(=O)cc(C(=O)NCC(c3ccco3)N3CCCC3)c2c1 (stereo not shown)  5.57%
16. CC(C)c1ccc(NC(=O)COc2ccc(S(=O)(=O)N3CCOCC3)cc2)cc1  5.72%
17. CCc1cc2c3c(c(=O)oc2cc1OC)CCCC3  6.21%
18. Cc1ccc(-n2c(C)c(C)c3c(NCCCO)ncnc32)cc1  6.21%
19. Cc1nn(CC(=O)NCc2ccc(-n3cccn3)cc2)c(C)c1[N+](=O)[O-]  6.37%
20. CCc1ccc(C(=O)NNC(=O)CC2OC(=O)c3ccccc32)cc1 (stereo not shown)  6.44%
21. Cc1ccc(-n2nnc3ccccc3c2=O)cc1C  6.54%
22. CC(C)N(C)S(=O)(=O)c1ccc(Cl)c(C(=O)O)c1  6.85%
23. CC(C)COC(=O)C(C#N)c1nc2ccccc2nc1N1CCN(Cc2ccccc2)CC1 (stereo not shown)  7.15%
24. Cc1ccc2[nH]c(=O)c(CN(CCc3ccccc3)Cc3nnnn3CC3CCCO3)cc2c1 (stereo not shown)  7.26%
25. COc1ccc(N2C(=O)C(OC(C)=O)C2c2ccc(C)cc2)cc1 (stereo not shown)  7.38%
26. CCN(CC(=O)NC(C)C)C(=O)c1ccc(Cl)cc1  7.7%
27. CN1CC(=O)N=C1N  7.78%
28. CC(=NC1CC1)c1c(-c2ccccc2)[nH]n(-c2nc3ccccc3s2)c1=O  8.29%
29. NC(=O)c1ccc(NC(=O)COC(=O)CCc2ccc(S(=O)(=O)N3CCCCC3)cc2)cc1  8.41%
30. COc1ccc(OCCNC(=O)c2cc(C3CC3)nc3c2cnn3C(C)C)cc1  8.52%
31. COc1cccc(-c2nc(-c3ccccn3)no2)c1  9.1%
32. S=C(Nc1nc2c(s1)CCCC2)NC1CC1  9.28%
33. Cn1c(=O)[nH]c2ncccc21  9.74%
34. CC1(C)CC(=O)CC(C2(O)C(=O)N(Cc3ccccc3)c3ccccc32)O1 (stereo not shown)  10%
35. COc1ccc(S(=O)(=O)N2CCCC(C(=O)N3CCCC3)C2)cc1OC (stereo not shown)  10.1%
36. COCc1ccc(CN2CCCCC2C(=O)Nc2ccc(Oc3ccccc3)nc2)o1 (stereo not shown)  10.6%
37. CCOC(=O)c1c[nH]c2c3c(ccc2c1=O)CCCC3  11%
38. C=C(C)n1c(=O)n(Cc2ccc(C)cc2)c2ccccc21  11.3%
39. CCN1C(=O)[C@H]2[C@@H](c3ccc(-c4ccccc4)cc3)N[C@@](C)(C(=O)OC)[C@H]2C1=O.O=C(O)C(F)(F)F  11.4%
40. Cc1cccc(NC(=O)CCN2CCOCC2)c1  12.5%
41. COc1ccccc1C(OC(=O)c1ccco1)C(=O)NC(C)(C)C (stereo not shown)  12.8%
42. O=C(Nc1nnc(-c2ccccc2)s1)c1ccccc1F  13.3%
43. CC1=Nc2ccc(C)cc2/C1=C/c1c(N)n2oc(C)cc2nc1=O  13.8%
44. CC(C)NCc1nnc(-c2ccc(Cl)cc2)o1  13.9%
45. O=C(CN1CCCCCC1)Nc1ccccc1F.O=C(O)C(=O)O  14%
46. CC(C)C[C@H](NC(=O)Nc1cccc(Br)c1)C(=O)O  14.1%
47. CC(=O)c1cccc(NS(=O)(=O)c2cc3c(cc2C)N(C(C)=O)CCO3)c1  14.5%
48. NS(=O)(=O)c1ccc(NC(=S)N2CCN(c3ccc(Cl)c(Cl)c3)CC2)cc1  14.8%
49. COc1ccc2nc(SC)cc(C)c2c1  15.4%
50. CC(=O)Nc1ccc(-c2nc3cc(Cl)ccc3o2)cc1  16.4%
51. N#CC(c1ccccn1)c1ncc(C(F)(F)F)cc1Cl (stereo not shown)  16.6%
52. O=C(O)/C=C\c1ccccc1Oc1ccc(F)cc1  18.7%
53. Cc1nn(Cc2c(F)c(F)c(F)c(F)c2F)c(C)c1NC(=O)c1ccc(COc2ccc(Cl)cc2Cl)o1  18.8%
54. CCc1ccc2oc(-c3cc(N=Cc4cccc(OC)c4O)ccc3O)nc2c1  19.3%
55. COC(=O)[C@@H](NC(=O)c1ccc2c(c1)S(=O)(=O)c1ccccc1C2=O)C(C)C  19.3%
56. COc1ccc(-c2[nH]ncc2/C=N/NC(=O)c2cc(Br)ccc2O)c(OC)c1  20.9%
57. COc1ccccc1C(=O)Nc1nc2ccccc2s1  21%
58. COc1ccc(CCC(=O)Nc2ccc(S(=O)(=O)Nc3nccc(C)n3)cc2)cc1  24.4%
